Screen size: about 52,000 compounds; about 1,700 (3.3%) were called active. Rule as the data show it: active = survival mostly below about 52% (no sharp cut-off); inactive = mostly above about 56%. The list shows a part of the results.
What follows are molecules tested on Wild type (assay: S. aureus survival, RN4220 and DeltatarO strains – OD600, teichoic acid synthesis inhibitors, primary screen (AID 463173)). Conditions: S. aureus RN4220 wild type/DeltatarO growth, OD600, 18 h, hits give low values, screened at 18.75 µg/mL (by protocol).

Structure (SMILES) | survival
Cc1cc(OCC(=O)NC(Cc2c[nH]c3ccccc23)C(=O)O)ccc1Cl (stereo unspecified) | inactive: 69%
Cc1oc2ncn(C)c(=O)c2c1C(=O)Nc1ccc(F)cc1 | inactive: 83%
Cc1cccc(N2CCN(C(=O)c3oc(=O)c4ccccc4c3-c3ccccc3)CC2C)c1 (stereo unspecified) | inactive: 71%
O=c1[nH]c(Nc2nc3ccccc3o2)nc2ccccc12 | inactive: 91%
CCOc1ccc2nc(N(Cc3cccnc3)C(=O)C3CCCCC3)sc2c1 | inactive: 70%
Cc1ccc(-c2nnc(Nc3ccccc3)c3ccccc23)cc1S(=O)(=O)N1CCOCC1 | inactive: 64%
Cc1ccc(C2CCN(C(=O)Nc3ccc(Cl)c(Cl)c3)C2)cc1 (stereo unspecified) | active: -3%
Cc1ccc(CNC(=O)c2ccc3c(c2)N(Cc2ccccc2Cl)C(=O)CS3)cc1 | inactive: 75%
COc1ccc(Cn2c(CCC(=O)Nc3ccc(C)cc3C)nc3cccnc32)cc1 | inactive: 69%
COc1cccc(CNC(=O)c2cccc(-n3c(C)nc4cccnc43)c2C)c1 | inactive: 70%
Cc1cccc(CSc2nc(=O)c3c(n2C)NC(=O)CC3c2cc(F)cc(F)c2)c1 (stereo unspecified) | inactive: 79%
CC(C)OCCCNC(=O)c1ccc(Cn2c(=O)c3cccn3c3cccnc32)cc1 | inactive: 111%
Cc1oc2ccc(O)c(CN3CCN(C)CC3)c2c1C(=O)Nc1ccccc1 | inactive: 87%
CCOc1cccc2cc(-c3cn4c(n3)sc3ccccc34)c(=O)oc12 | inactive: 64%
O=C(CCn1c(=O)c2sccc2n(CC(=O)Nc2ccccc2)c1=O)NCc1ccccc1Cl | inactive: 97%
Cc1ccsc1CN(C(=O)COc1ccc(Cl)cc1)C1CCS(=O)(=O)C1 (stereo unspecified) | inactive: 88%
COc1ccc(-c2[nH]ncc2C(=O)NCc2cccc(OC)c2)cc1 | inactive: 76%
CC(C(=O)N1c2ccccc2CCc2ccccc21)n1nnc(-c2ccc(N(C)C)cc2)n1 (stereo unspecified) | inactive: 104%
COc1cccc(CNCc2cccn2-c2nnc(N3CCN(c4ccccc4)CC3)s2)c1 | inactive: 71%
Cc1ccc(CNC(=O)CSc2nnc(C)c3c(C)n(-c4ccccc4)nc23)cc1 | inactive: 73%
CC1CCN(S(=O)(=O)c2ccc3c(ccc(=O)n3CC(=O)NCc3ccccc3Cl)c2)CC1 | inactive: 88%
COc1ccc(NC(=O)CSC2=Nc3ccccc3N=C(c3ccc(F)cc3)C2)cc1OC | inactive: 68%
CCN(C(=O)CCNC(=O)Cn1cnc2ccccc2c1=O)c1cc(OC)ccc1OC | inactive: 75%

Structure (SMILES) | survival
Cc1ccc2c(c1)c1c(c(=O)n(-c3ccccc3C)c(=O)n1CC(=O)c1ccc(Cl)cc1)n2C | inactive: 73%
O=C1c2cccc3c(N4CCCCC4)ccc(c23)C(=O)N1c1ccccn1 | inactive: 100%
COCCNC(=O)Nc1ccc2c(c1)nc(C)n2C | inactive: 87%
CN(C)c1ccc(NC(=O)Cn2nnc3sc4c(c3c2=O)CCC(C(C)(C)C)C4)cc1 (stereo unspecified) | inactive: 90%
O=S(=O)(c1ccc(Cl)cc1)c1nnn2c1nc(NC1CCCCC1)c1sccc12 | inactive: 72%
CCC1CN(C(=O)N2CCC(C(=O)NCc3cc(OC)c(OC)c(OC)c3)CC2)c2ccccc2O1 (stereo unspecified) | inactive: 87%
Cc1cc(S(=O)(=O)N(C)Cc2ccccc2)ccc1-n1cnnn1 | inactive: 104%
CN(C)c1ccc(CNC(=O)CN2C(=O)CSc3ccc(S(=O)(=O)N4CCCC4)cc32)cc1 | inactive: 94%
CN(C)CC1(c2ccccc2)CCCC1 | inactive: 104%
O=C(Nc1ccc2c(c1)OCCO2)C1CCCN(S(=O)(=O)Cc2ccccc2)C1 (stereo unspecified) | inactive: 105%
O=C(Nc1ccc(O)c(-c2nc3ccccc3o2)c1)c1ccc(Br)cc1 | inactive: 88%
CN(C)c1cccc(C(=O)Nc2nc3ccc(S(=O)(=O)N4CCCC4)cc3s2)c1 | inactive: 131%
CCSc1ncc(Cl)c(C(=O)Nc2nc3ccc(Cl)cc3s2)n1 | inactive: 107%
Cc1cccc(NC(=O)c2oc3ccccc3c2NC(=O)c2cc(=O)c3ccc(C)cc3o2)c1 | inactive: 77%
Cc1cc(NC(=O)CCc2nc3cccnc3n2Cc2cccs2)ccc1Br | inactive: 71%
Cc1ccc(-n2c(=O)c3c(cnn3C)n(Cc3ccc(Cl)cc3)c2=O)cc1 | inactive: 139%
CCOc1cc(C(=O)Nc2ccc(NC(=O)c3cc4ccccc4o3)c(OC)c2)cc(OCC)c1OCC | inactive: 132%
CCOc1ccc(CNC(=O)c2ccc3[nH]c(C)c(C)c3c2)cc1OC | inactive: 80%
CCc1ccc(NC(=O)N(Cc2c[nH]c3ccccc23)C2CCCCC2)cc1 | inactive: 93%
CCc1ccccc1NC(=O)CSc1nnc(-c2ccc(OC)cc2)s1 | inactive: 87%
CC(=O)Nc1ccc(NC(=O)C2CCN(S(=O)(=O)c3ccc4c(c3)CCCC(=O)N4)CC2)cc1 | inactive: 87%
Cc1ccc(NS(=O)(=O)c2cc(-c3cc(C)no3)ccc2C)c(Cl)c1 | inactive: 69%
CCOc1ccc2nc(N3CCCC(C(=O)Nc4cc(C)ccc4C)C3)sc2c1 (stereo unspecified) | inactive: 125%

Structure (SMILES) | survival
CC(=O)N(C1=NCCCCS1)c1ccccc1 | inactive: 110%
Cc1ccc(NC(=O)Nc2c[nH]c(=O)[nH]c2=O)c(Cl)c1 | inactive: 74%
COCCNC(=O)CCCn1c(SCC(=O)c2ccc(Br)cc2)nc2c(sc3ccccc32)c1=O | inactive: 84%
CCN(CC)N=Nc1ccc(NC(C)=O)cc1 | inactive: 117%
OCCNc1ccc(Cl)cc1 | inactive: 92%
Cc1cc2c(cc3c(SCc4ccc(Cl)cc4)nncn32)o1 | inactive: 84%
COc1ccc(C)cc1NC(=O)c1cnc2ccc(C)cn2c1=O | inactive: 90%
O=c1c2ccccc2n(Cc2c(F)cccc2Cl)c(=O)n1CCc1ccccc1 | inactive: 83%
CCOc1cc(C2c3c(oc4ccccc4c3=O)C(=O)N2Cc2ccc(OC)cc2)ccc1O (stereo unspecified) | inactive: 148%
Cc1ccn2c(=O)cc(COc3ccc(NC(=O)COc4ccc(C)c(C)c4)cc3)nc2c1 | inactive: 75%
Cc1ccc(OCC(=O)NCC(c2ccc(Cl)cc2)N2CCOCC2)cc1C (stereo unspecified) | inactive: 70%
O=C(CCCCn1c(=O)c2ccccc2n(Cc2cccc(F)c2)c1=O)NCc1ccc2c(c1)OCO2 | inactive: 107%
Cc1cccc(Nc2c(-c3ccsc3)nc3nc(C)cc(C)n23)c1 | inactive: 125%
Cc1ccc(-c2nc3c4ccccc4n(CC(=O)NCc4ccc(F)cc4)c(=O)n3n2)cc1 | inactive: 146%
CN1/C(=C\C(=O)Nc2cccnc2)c2ccccc2CC1(C)C | inactive: 111%
Cc1ccc(C(=O)c2oc3ccccc3c2NC(=O)Cc2coc3ccc(C)cc23)cc1 | inactive: 88%
COc1ccc(-n2cnc3cc(C(=O)NC4CCCCCC4)ccc32)cc1 | inactive: 128%
O=C(O)c1ccc2nc(-c3cc4cc(Cl)ccc4oc3=O)[nH]c2c1 | inactive: 73%
Cc1ccc2onc(CNC(=O)NCc3ccc(Cl)cc3)c2c1 | inactive: 89%
O=C1COc2cc(S(=O)(=O)CCC(=O)NC3CCCCC3)c(Cl)cc2N1 | inactive: 91%
COc1ccc(C)cc1-n1cnc2cc(C(=O)NC3CCCCCC3)ccc21 | inactive: 87%
Cn1c(SCC(=O)Nc2nc3ccccc3s2)ncc(C(=O)Nc2ccccc2)c1=O | inactive: 75%
Cc1csc(NC(=O)c2cccnc2)n1 | inactive: 114%

Structure (SMILES) | survival
CCc1nc(-c2cc(S(=O)(=O)N3CCN(c4ccccc4)CC3)ccc2OC)no1 | inactive: 85%
CCc1nn(CC(=O)NCCCN(CC)CC)c(=O)c2cc3occc3n12 | inactive: 135%
COc1cccc(CNC(=O)CN2C(=O)N(c3ccc(C)cc3C)S(=O)(=O)c3ccccc32)c1OC | inactive: 65%
O=C(CSc1nccn1-c1cccc(Cl)c1)Nc1cccc2ccccc12 | inactive: 64%
CCOc1ccc(CCNC(=O)CCCc2nnc3n(CC)c(=O)c4sccc4n23)cc1 | inactive: 98%
CCSc1ncc(Cl)c(C(=O)Nc2c(C(=O)Nc3ccccc3)oc3ccccc23)n1 | inactive: 112%
O=C(O)C(NS(=O)(=O)c1ccccc1)C(O)c1ccccc1 (stereo unspecified) | inactive: 110%
COc1cccc(C(=O)Nc2cccc(-c3nc4ncccn4c3C)c2)c1 | inactive: 133%
O=C(O)c1c(-c2ccccc2)oc2ccc(OCc3c(F)cccc3Cl)cc12 | inactive: 38%
Cn1c(=O)c2c(-c3ccc(Br)cc3)n(Cc3ccc(F)cc3)cc2n(C)c1=O | inactive: 39%
COc1ccc(-c2nc3cc(C)ccn3c2NC(=O)c2cccc(F)c2)cc1 | inactive: 81%
O=C(N/N=C/c1ccco1)C1c2ccccc2Oc2ccccc21 | inactive: 101%
Cc1ccc(/C=C(\C#N)C(=O)Nc2cccc(Cl)c2)o1 | inactive: 101%
COc1ccc(CCNC(=O)C2CCN(Cc3nc(-c4ccc(OC)c(OC)c4)oc3C)CC2)cc1OC | inactive: 87%
O=C(NCCn1cc(SCc2ccc(Br)cc2)c2ccccc21)c1cccs1 | inactive: 134%
O=C(Nc1ccccc1)c1cc2n(n1)C(C(F)(F)F)CC(c1ccco1)N2 (stereo unspecified) | inactive: 103%
N#Cc1c(/N=C/c2ccc3c(c2)OCO3)oc(-c2ccccc2)c1-c1ccccc1 | inactive: 115%
CCCC(=O)N1CCc2cc(OC)c(OC)cc2C1COc1ccc(C(=O)OC)cc1 (stereo unspecified) | inactive: 77%
C=CCn1c(N)nc2c1c(=O)n(C)c(=O)n2C | inactive: 104%
CCC1Oc2ccccc2N(CC(=O)NCc2cc(OC)ccc2OC)C1=O (stereo unspecified) | inactive: 87%
CCN(CC)C(=O)Cn1c(=O)n(CC2CCC(C(=O)NC)CC2)c(=O)c2sccc21 (stereo unspecified) | inactive: 118%
O=C(CSc1nc(-c2ccccc2F)nc2cc(=O)[nH]n12)Nc1cccc(C(F)(F)F)c1 | inactive: 69%
